# Measured values as given in PubChem BioAssay AID1468 (National Center for Advancing Translational Sciences (NCATS), 2008).
# Among all 280,000 compounds or so, about 1,100 (0.39%) were called active. This list was built around the results that the source calls inconclusive (neither active nor inactive); the mix of calls is not that of the screen. The call rests on the fitted dose curve; in most records, active means well fitted inhibition curve with a large enough effect; inconclusive means small, poorly fitted or top-dose-only effect, or effect the other way; inactive means flat fitted curve, though single readings scatter. No potency is given beside an inconclusive call; the fits are too rough.
# Biological target: Microtubule-associated protein tau (Homo sapiens) (UniProt P10636)
# Chain of UniProt P10636 (P10636 whole entry, looked up): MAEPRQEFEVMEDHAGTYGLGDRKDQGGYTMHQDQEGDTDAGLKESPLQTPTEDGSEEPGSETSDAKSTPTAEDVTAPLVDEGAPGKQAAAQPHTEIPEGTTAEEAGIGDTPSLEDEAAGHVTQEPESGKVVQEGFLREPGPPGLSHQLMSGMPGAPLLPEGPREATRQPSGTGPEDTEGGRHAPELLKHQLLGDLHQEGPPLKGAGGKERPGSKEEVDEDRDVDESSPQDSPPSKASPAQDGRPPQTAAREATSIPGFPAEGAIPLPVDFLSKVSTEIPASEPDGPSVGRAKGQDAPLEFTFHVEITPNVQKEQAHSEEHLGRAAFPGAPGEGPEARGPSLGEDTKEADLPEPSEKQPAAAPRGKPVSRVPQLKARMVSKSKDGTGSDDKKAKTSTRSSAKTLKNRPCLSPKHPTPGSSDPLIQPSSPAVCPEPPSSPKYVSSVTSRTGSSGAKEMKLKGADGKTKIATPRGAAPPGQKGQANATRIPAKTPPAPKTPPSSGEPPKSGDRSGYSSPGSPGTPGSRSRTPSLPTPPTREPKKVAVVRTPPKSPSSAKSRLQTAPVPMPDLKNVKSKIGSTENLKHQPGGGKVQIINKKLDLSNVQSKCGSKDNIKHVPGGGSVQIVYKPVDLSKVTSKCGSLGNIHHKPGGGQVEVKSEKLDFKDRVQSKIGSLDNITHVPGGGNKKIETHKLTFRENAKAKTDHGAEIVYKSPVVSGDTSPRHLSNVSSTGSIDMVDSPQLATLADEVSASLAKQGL
# Test: qHTS for Inhibitors of Tau Fibril Formation, Fluorescence Polarization; further: nearly all actives have a fitted effect of over 55% in size
# Conditions: K18 P301L tau heparin fibrillization, Alexa594 FP, 6 h; series mostly up to 57.7 µM; activity, negative = inhibition: at the top concentration
# Outline: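 Compound effects on tau fibrillization are measured by Alexa 594 fluorescence polarization (ex 555, em 632 nm). K18 P301L tau is used at 15 uM with 0.24 uM labeled tracer, and 20 uM heparin induces aggregation over 6 hr at 37 C.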
# On the % scale 0 is the no-effect control and ±100 the full control effect; potency means the concentration at half of the fitted maximal effect; tags describe the fitted curve by direction and shape.
SMILES,Potency,"activity, negative = inhibition"
Cc1ccc(C(=O)Nc2cccc(O)c2)cc1S(=O)(=O)N1CCCCCC1,"inconclusive [inhibitor, partial curve, poor fit]",–
Cc1ccc(-n2cc(-c3ccccc3)nc2S(=O)(=O)CC(=O)Nc2ccc(F)cc2)cc1,"inconclusive [inhibitor, partial curve]",–
Cc1noc(NS(=O)(=O)c2ccc(NC(=O)CSc3nc4ccccc4s3)cc2)c1C,–,inactive: -10.3%
COc1ccc(OC)c(NC(=O)Cn2ccc3ccccc3c2=O)c1,–,inactive: -2.18%
COc1ccccc1C(=O)Nc1nnc(SCc2cc(=O)c3cc(Cl)ccc3[nH]2)s1,"inconclusive [inhibitor, partial curve]",–
COc1ccc(NC(=O)c2c(-c3ccc(C)cc3)nnc3ccccc23)cc1Cl,–,inactive: -12.1%
Cn1c(CCCOc2ccc(Cl)cc2Cl)nnc1SCC(=O)Nc1ccc(F)c(Cl)c1,"inconclusive [inhibitor, partial curve, poor fit]",–
CC1CC(C)CN(C(=O)c2ccc3c(=O)n(Cc4ccc5c(c4)OCO5)c(=S)[nH]c3c2)C1 (stereo not given),"inconclusive [inhibitor, single point]",–
CCC(=O)Nc1ccc2nc(SCCOc3ccccc3)sc2c1,"inconclusive [inhibitor, full curve, poor fit]",–
COC(=O)c1ccc(/C=N/Nc2nc(C)c(C)s2)cc1,"inconclusive [activator, full curve, poor fit]",–
Cc1cc(C)c(OCCCCN(C)C)c(Br)c1,–,inactive: -0.964%
CN1CCN(C2=Cc3cc(Cl)ccc3Sc3cc(F)ccc32)CC1,–,inactive: -5.59%
CN(C)/C=N/c1nc2nccc(-c3cccc(Cl)c3)n2n1,–,inactive: -1.57%
COc1ccccc1OC(C)C(=O)Nc1c(C(=O)c2ccc(Cl)cc2)oc2ccccc12 (stereo not given),"inconclusive [inhibitor, partial curve]",–
Fc1cccc(Oc2nc3ccccc3n3cccc23)c1,"inconclusive [inhibitor, full curve, poor fit]",–
O=C(c1ccc(O)cc1)c1ccc(O)cc1O,–,inactive: 3.69%
Cc1cc2c(cc1C)NC(CC(=O)Nc1ccccc1)C(=O)N2 (stereo not given),–,inactive: 8.07%
COc1ccccc1CNc1cc(-c2ccccc2)ccc1OC,"inconclusive [activator, full curve, poor fit]",–
S=C(c1nc2ccccc2[nH]1)N1CCOCC1,–,inactive: -15.1%
Cc1ccc(C)c(NC(=S)/C(=C(\[O-])c2ccc(Cl)s2)[n+]2ccccc2)c1,–,inactive: -5.64%
Cc1nn(-c2ccc(Cl)cc2)c2[nH]c(=O)c(CNCc3ccc4c(c3)OCO4)cc12,"inconclusive [activator, full curve, poor fit]",–
NS(=O)(=O)c1ccc(C(=O)Nc2ccc(-c3nc4cccnc4s3)cc2)cc1,"inconclusive [inhibitor, partial curve]",–
O=C(CCCn1c(=O)c2cccn2c2ccc(F)cc21)NCc1ccc(Cl)cc1,"inconclusive [inhibitor, partial curve]",–
CCC1CN(C(=O)NCc2ccc(C)cc2)c2ccccc2O1 (stereo not given),"inconclusive [activator, full curve, poor fit]",–

SMILES,Potency,"activity, negative = inhibition"
Cc1nc(N)sc1N=Nc1ccc(Br)cc1,–,inactive: 8.34%
COC(=O)c1cn[nH]c1NC(=S)Nc1ccc(C)cc1Cl,"inconclusive [inhibitor, partial curve]",–
CCN(CC)c1ccc(/C=N/NC(=O)c2c(Cl)c(C)nn2C)cc1,"inconclusive [activator, single point]",–
Oc1ccc2ccccc2c1CN1CCOCC1,–,inactive: -7.61%
CSc1ncc(C(=O)Nc2c(C)cccc2C)c(-c2ccccc2)n1,–,inactive: -12.9%
Cc1nc2ccccc2c(=O)n1-c1ccc(NC(=O)c2cccc([N+](=O)[O-])c2)cc1,"inconclusive [inhibitor, partial curve, poor fit]",–
O=C(CSc1cccs1)Nc1ccc(Cl)cc1,–,inactive: -4.07%
Cc1ccc(C)c(NC(=O)c2cc(S(=O)(=O)N3CCCc4ccccc43)ccc2F)c1,"inconclusive [inhibitor, partial curve]",–
CCn1cc(Br)c(C(=O)Nc2ccc(F)c(Cl)c2)n1,"inconclusive [inhibitor, single point]",–
COCCCNc1nc(=S)[nH]c2cc(OC)c(OC)cc12,–,inactive: 0.904%
O=C(CSc1cccs1)NCCc1ccccc1,"inconclusive [inhibitor, single point]",–
O=C(Nc1nc(-c2ccccc2)c(C(=O)c2ccccc2)s1)c1ccc(S(=O)(=O)N2CCCC2)cc1,"inconclusive [inhibitor, single point]",–
OC1(c2ccc3ccccc3c2)CCN(Cc2ccccc2)C1 (stereo not given),–,inactive: -2.1%
O=C(N/N=C/c1cccnc1)c1cccs1,"inconclusive [inhibitor, single point]",–
O=C(/C=C/c1c(Cl)cccc1Cl)Nc1ccncc1,"inconclusive [inhibitor, partial curve, poor fit]",–
COC(=O)c1cc(NS(=O)(=O)c2ccc(N3CCCCC3)c([N+](=O)[O-])c2)cc(C(=O)OC)c1,"inconclusive [inhibitor, single point]",–
Cc1ccc(CNC(=O)C2CCN(S(=O)(=O)c3ccc4[nH]c(=O)ccc4c3)CC2)cc1,"inconclusive [inhibitor, single point]",–
CCc1ccc(-n2c(C)cc(/C=N/NC(=O)c3ccncc3)c2C)cc1,–,inactive: 8.94%
CC(C)c1nnc(NC(=O)CSc2ncn[nH]2)s1,–,inactive: -5.56%
Cc1ccc2nc(-c3ccc(SCC(=O)Nc4nc(C)cs4)nc3)[nH]c2c1,"inconclusive [inhibitor, partial curve]",–
O=C(Cc1ccc(Cl)cc1Cl)Nc1cccc(S(=O)(=O)Nc2ccccc2F)c1,active: 28.2 µM,–
CCOc1ccc(NC(=O)Cn2c(=O)n(-c3ccccc3)c(=O)c3ccc(C(=O)NCc4ccc5c(c4)OCO5)cc32)cc1,"inconclusive [inhibitor, partial curve]",–
Cc1cc(-c2csc(NC(=O)c3cccc(S(=O)(=O)N(C)C)c3)n2)c(C)n1-c1ccccc1,–,inactive: -5.02%
CC1(C)C(=O)N(CC(=O)Nc2cccc(F)c2)c2ccc(S(=O)(=O)N3CCCCC3)cc21,"inconclusive [inhibitor, partial curve]",–

SMILES,Potency,"activity, negative = inhibition"
COCCOC(=O)C1=C(C)NC2(O)c3ccccc3C(=O)C12O (stereo not given),"inconclusive [inhibitor, partial curve]",–
Cc1ccccc1-n1nc(C(=O)c2cccs2)cc(-c2nc3ccccc3[nH]2)c1=N,–,inactive: 2.89%
COc1ccc(S(=O)(=O)Nc2cc3c4c(oc3c3ccccc23)CC(C)(C)CC4=O)cc1,–,inactive: -1.21%
O=C1C2C3C=CC(C3)C2C(=O)N1c1ccc(N2CCN(c3ccccn3)CC2)c([N+](=O)[O-])c1 (stereo not given),"inconclusive [activator, single point]",–
O=C(Nc1cccc(S(=O)(=O)N2CCCC2)c1)c1cc(-c2ccccn2)nc2ccccc12,"inconclusive [inhibitor, partial curve, poor fit]",–
CCCCN1C(=O)/C(=C(/C#N)C(N)=O)c2ccccc21,"inconclusive [inhibitor, partial curve]",–
COc1cc(/C=N/NC(=O)C2C3CCCCC32C)cc(Br)c1O (stereo not given),"inconclusive [activator, single point]",–
CCc1ccc(NC(=O)Cn2c(=O)n(CCCCC(=O)NCc3ccc4c(c3)OCO4)c(=O)c3ccccc32)cc1,"inconclusive [inhibitor, partial curve]",–
COc1cc(/C=C2\CC/C(=C\c3cc(OC)c(O)c(OC)c3)C2=O)cc(OC)c1O,"inconclusive [inhibitor, single point]",–
CCOc1ccccc1-n1nnnc1SCC(=O)Nc1cc(C)on1,–,inactive: -1.93%
CCOC(=O)C1CCN(C(=O)COc2ccc(N(C)S(=O)(=O)c3ccc(C)cc3)cc2)CC1,–,inactive: 5.03%
CCOc1ccccc1CNc1ccc2cc(S(=O)(=O)N3CCC(C)CC3)ccc2n1,–,inactive: -3.89%
CCNC(=S)Nc1ccc(Cl)cc1Cl,–,inactive: -5.2%
CCC(c1nnnn1C(C)(C)CC)N(CCCO)Cc1cc2cc(C)cc(C)c2[nH]c1=O (stereo not given),"inconclusive [inhibitor, partial curve]",–
CNC(=O)C1CCC(Cn2c(=O)c3sccc3n(CC(=O)Nc3ccc(C)c(C)c3)c2=O)CC1 (stereo not given),"inconclusive [activator, single point]",–
CNc1ccccc1C(C)(C)c1cc(-c2cccc(Br)c2)no1,"inconclusive [activator, partial curve]",–
CS(=O)(=O)C1=NSC2=NC(=O)/C(=C\c3ccc(-c4ccccc4)o3)C(=N)N21,–,inactive: 12%
O=C(O)Cn1cc(/C=C2/NC(=O)N(c3ccc(Cl)cc3)C2=O)c2ccccc21,"inconclusive [activator, partial curve]",–
Cc1ccc(Cl)cc1NC(=O)Nc1nnc(N(C)Cc2ccccc2)s1,–,inactive: -2.48%
CCOc1c(C)cc(-c2ncccc2O)cc1C,"inconclusive [inhibitor, single point]",–
CCC1CN(C(=O)N2CCC(C(=O)NCCc3ccccc3Cl)CC2)c2cc(C)ccc2O1 (stereo not given),"inconclusive [inhibitor, partial curve]",–
COc1cc(NC(=O)CN2c3ccccc3S(=O)(=O)c3ccccc32)cc(OC)c1,–,inactive: -11.7%
